The supplement of paper PMC9588766
In all, about 1,900 compounds were measured (“cell viability of compound + 1 nM pemigatinib relative to pemigatinib-only (DMSO) wells”: median about 0.95, lowest 2% from about 0.22 on). The list shows a part of the results.

What follows are molecules tested on PDC-DUC18828 (assay: cell viability of compound + 1 nM pemigatinib relative to pemigatinib-only (DMSO) wells (fraction); PDC-DUC18828 is a patient-derived cholangiocarcinoma cell line; higher = less growth inhibition). Settings: first compound 1 µM; pemigatinib concentration 1 nM; 72 h.
Description: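 Selleck Bioactive library screen in the patient-derived FGFR2 fusion-positive ICC cell line PDC-DUC18828 (500 cells/well). Each compound was tested at 1 uM with 1 nM pemigatinib, in triplicate, for 72 h. Viability was read by CellTiter-Glo and normalised to plate DMSO controls. Value is the paper's averaged normalised viability.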
`Fc1ccc(C(c2ccc(F)cc2)N2CCN(C/C=C/c3ccccc3)CC2)cc1` [Flunarizine 2HCl] + CCN1C(=O)N(c2c(F)c(OC)cc(OC)c2F)Cc2cnc3[nH]c(CN4CCOCC4)cc3c21 [pemigatinib] was tested, and the cell viability was 1.01. In the case of `Oc1ccc([C@H]2COc3cc(O)ccc3C2)cc1` [Equol] + CCN1C(=O)N(c2c(F)c(OC)cc(OC)c2F)Cc2cnc3[nH]c(CN4CCOCC4)cc3c21 [pemigatinib], the cell viability is reported as 0.986. For `O=c1cc(-c2cccc3c2Sc2ccccc2S3)oc(N2CCOCC2)c1` + CCN1C(=O)N(c2c(F)c(OC)cc(OC)c2F)Cc2cnc3[nH]c(CN4CCOCC4)cc3c21 [pemigatinib], the cell viability was 0.998. For `Cc1c(N(C)C)c(=O)n(-c2ccccc2)n1C` [Amidopyrine] + CCN1C(=O)N(c2c(F)c(OC)cc(OC)c2F)Cc2cnc3[nH]c(CN4CCOCC4)cc3c21 [pemigatinib], the cell viability was 0.898. `CCOc1cc2ncc(C#N)c(Nc3ccc(F)c(Cl)c3)c2cc1NC(=O)/C=C/CN(C)C` [Pelitinib (EKB-569)] + CCN1C(=O)N(c2c(F)c(OC)cc(OC)c2F)Cc2cnc3[nH]c(CN4CCOCC4)cc3c21 [pemigatinib] showed a cell viability of 0.745. Molecule `Cc1cc(/C=C/C#N)cc(C)c1Nc1ccnc(Nc2ccc(C#N)cc2)n1` [Rilpivirine] + CCN1C(=O)N(c2c(F)c(OC)cc(OC)c2F)Cc2cnc3[nH]c(CN4CCOCC4)cc3c21 [pemigatinib] has a cell viability of 1.01. Work on `CCOC(=O)C1=C(COCCN)NC(C)=C(C(=O)OC)C1c1ccccc1Cl` (configuration not stated) [Amlodipine] + CCN1C(=O)N(c2c(F)c(OC)cc(OC)c2F)Cc2cnc3[nH]c(CN4CCOCC4)cc3c21 [pemigatinib] yielded a cell viability of 0.939. `Oc1ccc(/C=C/c2cc(O)cc(O)c2)cc1` [Resveratrol] + CCN1C(=O)N(c2c(F)c(OC)cc(OC)c2F)Cc2cnc3[nH]c(CN4CCOCC4)cc3c21 [pemigatinib] showed a cell viability of 0.998. Work on `Cc1ncc(CCCN(C)C)cc1Nc1ncc2c(n1)-c1ccc(C(F)(F)F)cc1NC(=S)C2` + CCN1C(=O)N(c2c(F)c(OC)cc(OC)c2F)Cc2cnc3[nH]c(CN4CCOCC4)cc3c21 [pemigatinib] yielded a cell viability of 0.204. For `COc1ccc(/C=C/C(=O)Nc2ccccc2C(=O)O)cc1OC` [Tranilast] + CCN1C(=O)N(c2c(F)c(OC)cc(OC)c2F)Cc2cnc3[nH]c(CN4CCOCC4)cc3c21 [pemigatinib], the cell viability was 1.01. `CCN(CC)CCNC(=O)c1c(C)[nH]c(/C=C2\C(=O)Nc3ccc(F)cc32)c1C` [Sunitinib] + CCN1C(=O)N(c2c(F)c(OC)cc(OC)c2F)Cc2cnc3[nH]c(CN4CCOCC4)cc3c21 [pemigatinib] showed a cell viability of 0.992. Work on `CCN(CC)CCNC(=O)c1c(C)[nH]c(/C=C2\C(=O)Nc3ccc(F)cc32)c1C` [Sunitinib Malate] + CCN1C(=O)N(c2c(F)c(OC)cc(OC)c2F)Cc2cnc3[nH]c(CN4CCOCC4)cc3c21 [pemigatinib] yielded a cell viability of 0.939.
